In the antibiotic and cytotoxicity screens of Wong et al. (2023):
Some of the results follow.

What was measured:
HSkMC = human skeletal muscle cells; assay: cytotoxicity call (relative viability < 0.9); settings: 10 µM
HepG2 = assay: cytotoxicity call (relative viability < 0.9); settings: 10 µM
S. aureus RN4220 = assay: growth inhibition call (relative growth <= 0.2); settings: 50 µM

O=C(CCCCCNC(=O)OCc1ccc(CO[C@H]2C[C@@H](c3ccc4c(c3)OCO4)C=C(C(=O)N3CCOCC3)O2)cc1)NO
inactive: cytotoxicity call (HSkMC) | cytotoxicity call (HepG2) | growth inhibition call (S. aureus RN4220)

C[C@H](CO)N1C[C@H](C)[C@@H](CN(C)S(=O)(=O)c2cn(C)cn2)Oc2ccc(NC(=O)Nc3ccc4c(c3)OCO4)cc2C1=O
inactive: cytotoxicity call (HSkMC) | cytotoxicity call (HepG2) | growth inhibition call (S. aureus RN4220)

COc1ccc(NC(=O)Nc2ccc3c(c2)[C@H]2C[C@@H](CC(=O)NCC(F)(F)F)O[C@@H](CO)[C@H]2O3)cc1
inactive: cytotoxicity call (HSkMC) | cytotoxicity call (HepG2) | growth inhibition call (S. aureus RN4220)

CC(C)c1cccc(C(C)C)c1NC(=O)Cc1cccs1
inactive: cytotoxicity call (HSkMC) | cytotoxicity call (HepG2) | growth inhibition call (S. aureus RN4220)

CC[C@H]1NCCNC1=O
inactive: cytotoxicity call (HSkMC) | cytotoxicity call (HepG2) | growth inhibition call (S. aureus RN4220)

C[C@H](CO)N1C[C@H](C)[C@H](CN(C)C(=O)Nc2ccc(C(F)(F)F)cc2)Oc2ccc(NC(=O)Nc3ccc4c(c3)OCO4)cc2C1=O
inactive: cytotoxicity call (HSkMC) | cytotoxicity call (HepG2) | growth inhibition call (S. aureus RN4220)

C[C@H]1CN([C@@H](C)CO)C(=O)c2cccc(NC(=O)c3cnccn3)c2O[C@@H]1CN(C)S(C)(=O)=O
inactive: cytotoxicity call (HSkMC) | cytotoxicity call (HepG2) | growth inhibition call (S. aureus RN4220)

C[C@@H]1CN([C@H](C)CO)C(=O)Cc2cc(NS(=O)(=O)c3ccccc3)ccc2O[C@@H]1CN(C)CC1CC1
inactive: cytotoxicity call (HSkMC) | cytotoxicity call (HepG2) | growth inhibition call (S. aureus RN4220)

Cc1noc(C)c1NC(=O)N[C@H]1CC[C@H](CC(=O)NCCCN(C)C)O[C@@H]1CO
inactive: cytotoxicity call (HSkMC) | cytotoxicity call (HepG2) | growth inhibition call (S. aureus RN4220)

CNC(=O)c1cc(S(=O)(=O)N(C)C[C@@H]2Oc3ccc(NC(=O)Nc4ccc(C#N)cc4)cc3CC(=O)N([C@@H](C)CO)C[C@@H]2C)cs1
inactive: cytotoxicity call (HSkMC) | cytotoxicity call (HepG2) | growth inhibition call (S. aureus RN4220)

CC(C)NC(=O)Nc1ccc2c(c1)C(=O)N([C@H](C)CO)C[C@@H](C)[C@H](CN(C)C(=O)C1CCCCC1)OCCCC[C@@H](C)O2
inactive: cytotoxicity call (HSkMC) | cytotoxicity call (HepG2) | growth inhibition call (S. aureus RN4220)

C[C@H](CO)N1C[C@H](C)[C@H](CN(C)S(C)(=O)=O)Oc2c(NC(=O)Nc3ccc(F)cc3)cccc2C1=O
inactive: cytotoxicity call (HSkMC) | cytotoxicity call (HepG2) | growth inhibition call (S. aureus RN4220)

COc1ccc(-c2coc3cc(OC)cc(OC)c3c2=O)cc1
inactive: cytotoxicity call (HSkMC) | cytotoxicity call (HepG2) | growth inhibition call (S. aureus RN4220)

C[C@@H](CO)N1C(=O)[C@@H]2[C@H]3C(=O)OCCC=C[C@H]3O[C@]23C=CCN(Cn2nnc4ccccc42)C(=O)[C@@H]13
inactive: cytotoxicity call (HSkMC) | cytotoxicity call (HepG2) | growth inhibition call (S. aureus RN4220)

C[C@@H]1CCCCO[C@H](CN(C)C(=O)c2ccccc2)[C@@H](C)CN([C@H](C)CO)C(=O)c2cc(NS(=O)(=O)c3cccs3)ccc2O1
inactive: cytotoxicity call (HSkMC) | cytotoxicity call (HepG2) | growth inhibition call (S. aureus RN4220)

COc1ccc(CN(C)C[C@@H]2Oc3ccc(NS(C)(=O)=O)cc3C(=O)N([C@H](C)CO)C[C@@H]2C)cc1
inactive: cytotoxicity call (HSkMC) | cytotoxicity call (HepG2) | growth inhibition call (S. aureus RN4220)

C[C@H]1CCCCO[C@H](CN(C)C(=O)NC2CCCCC2)[C@@H](C)CN([C@@H](C)CO)C(=O)c2cc(NC(=O)C3CCCCC3)ccc2O1
inactive: cytotoxicity call (HSkMC) | cytotoxicity call (HepG2) | growth inhibition call (S. aureus RN4220)

C[C@H](CO)N1C[C@H](C)[C@@H](CN(C)CC2CCCCC2)Oc2c(NC(=O)Cn3cnnn3)cccc2C1=O
inactive: cytotoxicity call (HSkMC) | cytotoxicity call (HepG2) | growth inhibition call (S. aureus RN4220)

C=C(C)[C@]1(O)OC(=O)C=C1OC
inactive: cytotoxicity call (HSkMC) | cytotoxicity call (HepG2) | growth inhibition call (S. aureus RN4220)

CCNC(=O)C[C@H]1CC[C@@H](NC(=O)C2CC2)[C@H](CO)O1
inactive: cytotoxicity call (HSkMC) | cytotoxicity call (HepG2) | growth inhibition call (S. aureus RN4220)

CCOCCOc1ccccc1C(N)=O
inactive: cytotoxicity call (HSkMC) | cytotoxicity call (HepG2) | growth inhibition call (S. aureus RN4220)

CC(C)NC(=O)NCC[C@@H]1CC[C@H](NC(=O)CN(C)C)[C@H](CO)O1
inactive: cytotoxicity call (HSkMC) | cytotoxicity call (HepG2) | growth inhibition call (S. aureus RN4220)
